# Test results from PubChem BioAssay (NCATS).
# Inconclusive means that the source gave no clear call. Such entries were picked first, then a sample of the others. Where the call is inconclusive, the potency comes from a doubtful curve fit. Activity calls are given as the source filed them. Unless noted, calls come from the whole dose curve; as a rule, active = well fitted activation curve with a large enough effect in the main read-out, with a control signal flat (not every such curve was filed as active); inconclusive = small, poorly fitted or top-dose-only effect, or effect the other way, or a change in a side signal; inactive = flat fitted curve, though single readings scatter.
# Tests used:
# [1] = target: 3',5'-cyclic-AMP phosphodiesterase 4B (Homo sapiens) (UniProt Q07343); assay: qHTS Assay for Inhibitors of PDE-IV (AID 607); settings: HEK293 ACTOne CNG channel cells, membrane potential fluorescence; series mostly up to 22.9 µM
# UniProt Q07343, sequence (Q07343 whole entry, looked up): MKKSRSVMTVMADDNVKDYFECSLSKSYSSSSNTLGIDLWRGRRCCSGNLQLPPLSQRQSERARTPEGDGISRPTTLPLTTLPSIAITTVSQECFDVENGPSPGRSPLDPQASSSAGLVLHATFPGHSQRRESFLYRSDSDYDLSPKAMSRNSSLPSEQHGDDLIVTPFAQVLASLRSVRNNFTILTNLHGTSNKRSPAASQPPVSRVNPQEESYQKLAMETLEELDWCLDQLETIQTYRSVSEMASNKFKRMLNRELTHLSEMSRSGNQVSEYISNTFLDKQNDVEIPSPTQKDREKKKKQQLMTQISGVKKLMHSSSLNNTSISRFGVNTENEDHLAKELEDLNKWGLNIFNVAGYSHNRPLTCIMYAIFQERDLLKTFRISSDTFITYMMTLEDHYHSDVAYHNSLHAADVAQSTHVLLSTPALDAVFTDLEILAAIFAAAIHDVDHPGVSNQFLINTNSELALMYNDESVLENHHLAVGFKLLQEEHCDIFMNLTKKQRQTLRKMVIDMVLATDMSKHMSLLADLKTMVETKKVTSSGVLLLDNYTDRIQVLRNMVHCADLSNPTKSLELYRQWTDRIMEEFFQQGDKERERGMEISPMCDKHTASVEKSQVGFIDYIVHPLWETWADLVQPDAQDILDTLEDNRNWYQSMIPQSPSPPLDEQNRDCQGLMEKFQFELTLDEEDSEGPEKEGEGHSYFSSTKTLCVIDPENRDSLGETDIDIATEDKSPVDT
# Outline: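 The readout is membrane depolarisation from a cAMP-sensing CNG channel, detected with a potential dye at ex 535/em 590. Cells were HEK293-derived (endogenous PDE-IV) at 1000 cells/well, titrated up to 22.9 uM final.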
# [2] = target: Cytochrome P450 3A4 (Homo sapiens) (UniProt P08684); assay: qHTS Assay for Inhibitors and Substrates of Cytochrome P450 3A4 (AID 884; active = well fitted inhibition curve with a large enough effect; inconclusive = small, poorly fitted or top-dose-only effect; inactive = no such curve, though single readings can be large or run the other way; note: nearly all actives have a fitted effect of over 50% in size); settings: recombinant CYP3A4, Luciferin-PPXE luminescence; activity change, negative = inhibition: at 57.1 µM (top of the series) unless noted
# UniProt P08684, sequence (P08684 whole entry, looked up): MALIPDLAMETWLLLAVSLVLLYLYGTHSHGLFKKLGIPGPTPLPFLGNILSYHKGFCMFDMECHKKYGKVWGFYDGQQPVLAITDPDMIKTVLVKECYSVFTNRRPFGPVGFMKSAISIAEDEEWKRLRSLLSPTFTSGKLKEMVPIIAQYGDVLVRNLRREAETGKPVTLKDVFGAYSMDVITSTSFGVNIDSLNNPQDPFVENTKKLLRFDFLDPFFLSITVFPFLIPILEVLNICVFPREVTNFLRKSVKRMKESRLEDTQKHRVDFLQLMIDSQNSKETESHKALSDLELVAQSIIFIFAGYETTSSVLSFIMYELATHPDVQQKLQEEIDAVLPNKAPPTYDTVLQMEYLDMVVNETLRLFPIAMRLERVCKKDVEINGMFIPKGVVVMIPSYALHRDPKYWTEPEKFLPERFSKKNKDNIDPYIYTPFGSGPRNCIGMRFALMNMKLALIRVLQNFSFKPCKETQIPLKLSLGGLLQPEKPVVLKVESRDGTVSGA
# Outline: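 Luminescent readout of luciferin produced by CYP3A4 (20 nM) dealkylation of Luciferin-PPXE, 25 uM (its KM). NADPH-driven reaction ran 60 min at RT after 10 min compound preincubation; data scaled to 57 uM ketoconazole as 100% inhibition.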
# [3] = target: Cytochrome P450 2C9 (Homo sapiens) (UniProt P11712); assay: qHTS Assay for Inhibitors and Substrates of Cytochrome P450 2C9 (AID 883; active = well fitted inhibition curve with a large enough effect; inconclusive = small, poorly fitted or top-dose-only effect; inactive = no such curve, though single readings can be large or run the other way; note: nearly all actives have a fitted effect of over 60% in size); settings: recombinant CYP2C9, luciferin-H luminescence, 60 min; activity change, negative = inhibition: at 11.4 µM (top of the series) unless noted
# UniProt P11712, sequence (P11712 whole entry, looked up): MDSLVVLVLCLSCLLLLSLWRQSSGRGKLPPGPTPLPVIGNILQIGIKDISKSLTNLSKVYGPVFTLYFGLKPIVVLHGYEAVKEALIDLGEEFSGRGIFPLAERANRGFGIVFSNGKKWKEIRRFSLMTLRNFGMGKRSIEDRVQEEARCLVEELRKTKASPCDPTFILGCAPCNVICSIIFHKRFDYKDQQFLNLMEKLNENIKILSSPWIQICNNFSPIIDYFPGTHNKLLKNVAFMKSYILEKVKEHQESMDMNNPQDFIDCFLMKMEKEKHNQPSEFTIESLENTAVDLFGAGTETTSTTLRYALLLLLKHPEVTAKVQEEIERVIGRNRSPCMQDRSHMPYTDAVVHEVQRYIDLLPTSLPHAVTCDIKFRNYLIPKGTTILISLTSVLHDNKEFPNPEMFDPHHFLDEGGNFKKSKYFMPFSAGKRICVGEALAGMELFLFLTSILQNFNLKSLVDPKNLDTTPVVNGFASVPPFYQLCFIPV
# Outline: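 Signal: luciferase luminescence reporting luciferin produced by CYP2C9. Conditions: 10nM enzyme, Luciferin-H 100uM at KM, 25mM KPO4, 37C, 60 min NADPH-driven reaction. Reference: 57uM sulphaphenazole as 100% inhibition.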
# Potency is the fitted concentration of half-maximal effect; tags give direction and shape of the fitted curve.
structure (smiles),measurement,setting,value
C[C@@](O)(CNS(=O)(=O)c1ccccc1)c1ccccc1,Potency,[1],inactive
CC(C)[C@H](Nc1ncnc2nc[nH]c12)C(=O)O,Potency,[1],inactive
OC[C@@H]1O[C@@H](n2cnc3c(NCc4ccco4)ncnc32)[C@H](O)[C@H]1O,Potency,[1],inactive
C[C@@H](C(=O)NCCc1c[nH]c2ccccc12)[C@@H]1C[C@@]1(C)[C@@H](NC(=O)OCc1ccccc1)c1ccccc1,Potency,[1],inactive
C[N+](C)(C)c1nc(N)nc2c1ncn2[C@H]1O[C@@H](CO)[C@@H](O)[C@H]1O,Potency,[1],inactive
CC(C)c1cccc2nc3c(c([Si](C)(C)C(C)(C)C)c12)Cn1c-3cccc1=O,Potency,[1],"inconclusive: 10 µM [activator, partial curve]"
C=C1C[C@@]23C[C@]1(O)CC[C@@H]2[C@]12C=C[C@@H](O)[C@@](C)(C(=O)O1)[C@@H]2[C@@H]3C(=O)O,Potency,[1],"inconclusive: 19 µM [activator, single point]"
COC(=O)[C@@]1(Cc2ccc(OC)cc2)[C@@H]2C(=CC(=O)[C@H]2CC(=O)C(=O)N2CCCC2)CN1C(=O)c1ccccc1,Potency,[1],"inconclusive: 15.8 µM [activator, single point]"
same,Potency,[2],"inconclusive: 2 µM [inhibitor, full curve]"
CCC/C=C(\CCC)C(NC(=O)c1ccc(C(=O)OC)cc1)c1ccc(C(=O)OC)cc1 (stereo unspecified),Potency,[1],"inconclusive: 6.31 µM [rising, partial curve]"
same,Potency,[3],active: 2 µM
COc1ncc2ncc(=O)n(Cc3cccs3)c2n1,Potency,[1],"inconclusive: 10 µM [activator, partial curve]"
same,Potency,[2],"inconclusive: 1.26 µM [inhibitor, full curve]"
Nc1ccc(S(=O)(=O)c2ccc(NC(=O)c3cccnc3)cc2)cc1,Potency,[1],inactive
same,Potency,[3],"inconclusive: 6.31 µM [inhibitor, single point]"
same,Potency,[2],"inconclusive: 3.16 µM [inhibitor, partial curve]"
